Out of some 340,000 compounds screened, about 6,900 (2%) were called active. No stated cut-off is given here; in the data, active means inhibition above about 30%; inactive means below that, where a call was filed. Only a part is listed here, and it is no random draw. Entries without a call were filed so in the source.

This assay addresses D(2) dopamine receptor (Homo sapiens) (UniProt P14416). The assay is described as follows: HTS Assay for Allosteric Antagonists of the Human D2 Dopamine Receptor: Primary Screen for Antagonists. Further: 0% is about no effect. Conditions: HEK293 TREx D2 cells, calcium flux, dopamine EC80; at 10 µM; stronger effect = higher value. An outline of the steps: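 Cells plated overnight at 30 C with tetracycline; no-wash calcium dye, 30–90 min RT; 10 s baseline; compound pinned; 180 s read; EC80 dopamine added; another 180 s read.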
UniProt P14416, sequence (P14416 whole entry, looked up): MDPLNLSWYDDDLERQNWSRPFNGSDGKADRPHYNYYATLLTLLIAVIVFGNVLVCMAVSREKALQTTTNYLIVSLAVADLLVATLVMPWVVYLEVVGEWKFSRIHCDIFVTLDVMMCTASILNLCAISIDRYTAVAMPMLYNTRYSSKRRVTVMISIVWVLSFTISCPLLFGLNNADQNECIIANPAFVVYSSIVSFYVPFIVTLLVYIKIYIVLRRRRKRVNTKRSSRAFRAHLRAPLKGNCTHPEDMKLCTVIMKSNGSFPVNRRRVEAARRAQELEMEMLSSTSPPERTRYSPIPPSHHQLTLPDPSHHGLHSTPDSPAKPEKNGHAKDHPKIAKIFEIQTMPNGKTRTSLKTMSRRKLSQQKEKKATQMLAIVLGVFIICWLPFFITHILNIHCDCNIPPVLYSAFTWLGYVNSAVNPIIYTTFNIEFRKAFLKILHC
In the case of `Cc1ccccc1Cn1cc(NC(=O)c2cc(-c3ccc(Cl)cc3)on2)cn1`, the inhibition was -4.32%.

Regarding `Cc1[nH]c2ccc(C(=O)NCCc3ccccc3Cl)cc2c1C`, the inhibition is 6.91%.

For `Cc1cccc(NC(=O)CN2C(=O)COc3ccc(S(=O)(=O)Nc4ccccc4)cc32)c1C`, the inhibition is -2.83%.

On to `CN(C(=O)CN1CCN(c2cnn(-c3ccccc3)c(=O)c2Cl)CC1)C1CCS(=O)(=O)C1` (centres undefined), for which the inhibition was active: 33.2%.

Turning to `CCOc1cccc(C2c3c(oc4ccc(F)cc4c3=O)C(=O)N2CCOC)c1` (centres undefined), the inhibition was -8.37%.

With `CCCNC(=O)C1CCC(Cn2c(=O)c3sccc3n(CC(=O)N3CCCC(C)C3)c2=O)CC1` (centres undefined), the inhibition is -16.5%.

For `CC(=O)C1=C(c2ccc(C)cc2)N(C(C)=O)n2c(nnc2-c2ccccc2)S1`, the inhibition was -3.66%.

Take `COc1ccc(S(=O)(=O)NCC(c2ccc(N(C)C)cc2)N2CCCC2)cc1F` (centres undefined): the inhibition is -15.7%.

For the compound `CCOC(=O)N1CCN(CCC(=O)Nc2ccc(OC)cc2OC)CC1`, the inhibition was active: 36.4%.

On to `Cc1cc2c(cc1S(=O)(=O)N1CCC(C(N)=O)CC1)OCC(=O)N2`, for which the inhibition is -22.4%.

For `Cc1ccc(Nc2c(-c3ccc(N4CCOCC4)cc3)nc3ccc(Cl)cn23)cc1`, the inhibition is -12.6%.

With `CCOc1ccc(C2c3c(oc4ccccc4c3=O)C(=O)N2Cc2ccc3c(c2)OCO3)cc1` (centres undefined), the inhibition is -1.67%.

As to `Cc1cccc(-c2nnn3c2nc(NCCC(C)C)c2ccccc23)c1`, the inhibition was -14.9%.

With `Cc1cc(C)c(NC(=O)Cn2nnc(-c3nc(-c4ccncc4)no3)c2N)c(C)c1`, the inhibition was found to be 1.52%.

`CC(=O)c1ccc(NC(=O)/C=C/c2ccc(C)o2)cc1`: the inhibition is -11.5%.

Take `CCOC(=O)c1cccc(NC(=O)C2(S(=O)(=O)c3ccc(C)cc3)CC2)c1`: the inhibition was found to be 24.1%.

Consider `O=C(CSc1nc2c([nH]c3ccccc32)c(=O)n1-c1cccc(C(F)(F)F)c1)N1CCCC1`, for which the inhibition was determined as 0.0747%.

On to `COc1cccc(C(=O)Nc2ccc(-c3nc4ccc(C)cc4s3)cc2)c1OC`, for which the inhibition came out at 15.7%.

As for `COc1cn(CC(=O)Nc2ccc(C)cc2C)c(CN2CCCCC2)cc1=O`, the inhibition stood at 6.36%.

On to `Cc1ccc(N2CCN(c3nc4ccccc4n4nnnc34)CC2)c(C)c1`, for which the inhibition is 4.41%.

Regarding `COc1cccc(C(=O)Nc2ccccc2SCc2cc(=O)c3cccc(C)c3[nH]2)c1`, the inhibition was -21.8%.

Turning to `Cc1cc(C)cc(NC(=O)c2cc(S(=O)(=O)N3CCOCC3)cn2C)c1`, the inhibition was determined as 25.8%.

`Cc1ccc(Cl)cc1N1CCN(C(=O)c2cnn(-c3ccc(Cl)cc3)c2C2CCNCC2)CC1`: the inhibition is -2.77%.

Turning to `COc1ccc(C(CNC(=O)c2ccc(NS(=O)(=O)c3ccc4c(c3)OCCO4)cc2)N(C)C)cc1` (centres undefined), the inhibition is active: 31%.

Consider `CCC1(NC(C)=O)CC2CC1CC2NC(C)=O` (centres undefined), for which the inhibition was active: 38.5%.

Regarding `O=C(O)c1cccc(NC(=O)c2cccc(S(=O)(=O)Nc3cccc(F)c3)c2)c1`, the inhibition was -2%.

Take `O=S(=O)(Nc1ccc(-c2ccc(N3CCCC3)nn2)cc1)c1ccccc1Cl`: the inhibition was -6.76%.

Take `COc1ccc(NC(=O)CSc2nc3ccccc3n2CC(=O)Nc2cccc(C)c2C)cc1`: the inhibition came to 0.181%.

Turning to `CCOc1ccccc1NC(=O)C(C)n1nnc2sc3c(c2c1=O)CCCC3` (centres undefined), the inhibition is -14.2%.

Turning to `COc1cc(OC)c(NC(=O)Nc2sc3nc4n(c(=O)c3c2C)CCC(C)CC4)cc1Cl` (centres undefined), the inhibition was 7.82%.

As to `Cc1ccc(-n2c(SCC(N)=O)nc3c(oc4ccccc43)c2=O)cc1`, the inhibition amounted to 3.49%.

With `Cc1ccc(CCNC(=O)c2ccc(Cn3c(=O)c4cccn4c4cccnc43)cc2)cc1`, the inhibition was -23%.

Regarding `O=C(COc1cccc(Cl)c1)N1CCC(c2nc3ccccc3s2)CC1`, the inhibition was 15.5%.

Regarding `Cc1ccc(NC(=O)C2CCN(c3ncccn3)CC2)cc1F`, the inhibition was 10.1%.

For `COc1ccccc1OCCn1c(NC(=O)c2ccccc2)nc2ccccc21`, the inhibition is -24.8%.

For `CCN(CC)C(=O)c1sc2c(c1C)c(=O)n(-c1ccc(C)c(C)c1)c(=O)n2Cc1cccc(Cl)c1`, the inhibition was -2.81%.

As to `CCC(Sc1nc2cc3c(cc2c(=O)n1CCCC(=O)NCc1ccc(OC)cc1)OCO3)C(=O)NCCCOC` (centres undefined), the inhibition stood at 15.2%.

`Cc1ccc(OCC(=O)Nc2ccc3nc(SCC(=O)N4CCOCC4)sc3c2)cc1C`: the inhibition is 9.63%.

Take `Cc1ccc2cccc(NC(=O)c3ccc(C#N)cc3F)c2n1`: the inhibition stood at 2.62%.

For `COc1ccc(/C=C/C(=O)Nc2ccccc2)cc1OC`, the inhibition was active: 30.2%.

In the case of `Cc1ccccc1NC(=O)Cn1c(=O)n(CCC(=O)NCc2ccc3c(c2)OCO3)c(=O)c2sccc21`, the inhibition is -12.7%.

Turning to `CC(=O)N1CCc2cc(CNS(=O)(=O)c3ccc(C(C)(C)C)cc3)ccc21`, the inhibition was -6.12%.

Regarding `O=C1CN(C(=O)c2ccc(S(=O)(=O)N3CCCCC3)cc2)C(c2ccc(F)cc2)c2cc(Br)ccc2N1` (centres undefined), the inhibition came out at 15.5%.

With `c1ccc(-c2ccccc2OCCOCCN2CCCCC2)cc1`, the inhibition is active: 87.1%.

With `O=C(CN1CCN(c2cccc(Cl)c2)CC1)Nc1ccc(S(=O)(=O)N2CCOCC2)cc1`, the inhibition is active: 30.5%.

For the compound `CCC12CN3CC(C)(CN(C1)C3c1c[nH]c3ccc(OC)cc13)C2=O` (centres undefined), the inhibition was -12%.

`COC(=O)c1ccc(Oc2nc3c(c(=O)n(C)c(=O)n3C)n2C(C)C)cc1`: the inhibition is 0.441%.

In the case of `O=C(COc1ccccc1[N+](=O)[O-])Nc1cc(-c2nc3cc(Cl)ccc3o2)ccc1Cl`, the inhibition came out at 1.51%.

`CCc1ccccc1N(C)C(=O)c1nn(C)c2c1CSc1ccccc1-2`: the inhibition is -15.6%.

As to `Cc1ccc2nc(N3CCC(C(=O)NCc4ccc(F)cc4)CC3)[nH]c2c1`, the inhibition turned out to be 1.48%.

For the compound `CCCCNC(=O)CSc1nc2cc3c(cc2c(=O)n1CCCCCC(=O)NCCc1ccc(OC)c(OC)c1)OCO3`, the inhibition is 13.3%.

Take `Cc1ccc2nc(COc3cccc(NC(=O)c4cccc(Cl)c4)c3)cc(=O)n2c1`: the inhibition was -4.7%.

In the case of `Cc1cc(C)c(S(=O)(=O)NCc2csc(-c3ccccc3)n2)c(C)c1`, the inhibition came to 7.76%.

Regarding `CCn1ccc2cc(S(=O)(=O)N3CCCN(C(=O)NCC(=O)OC)CC3)ccc21`, the inhibition is -16.4%.

Turning to `c1ccc(CCCN2CCN(c3ccccc3)CC2)cc1`, the inhibition was active: 78.9%.

With `Cc1ccccc1C(=O)NC1(C(F)(F)F)N=C(c2ccccc2)N(Cc2ccccc2)C1=O` (centres undefined), the inhibition was found to be 3.4%.

As for `COc1cccc(-c2cc(C(F)(F)F)n3nc(C)c(-c4ccccc4)c3n2)c1`, the inhibition was found to be 5.98%.

With `COc1ccc(Cn2ccc3nc(C)c(C(=O)N4CCN(c5ccccc5F)CC4)cc3c2=O)cc1`, the inhibition was -6.85%.

For the compound `Cc1ccc(NC(=O)Cn2cc3c(n2)CCC(C)C3)cc1C` (centres undefined), the inhibition amounted to 11%.

Regarding `CC(C(=O)N(C)Cc1ccccc1)N1CCN(C/C=C/c2ccccc2)CC1` (centres undefined), the inhibition was active: 68.7%.

With `CCCCCC(=O)N(c1ccc(OCC)cc1)S(=O)(=O)c1ccc2c(c1)n(C)c(=O)n2C`, the inhibition came to 24%.

For `Cc1ccc(CCNC(=O)c2ccc(CS(=O)(=O)Cc3cccc(C)c3)o2)cc1`, the inhibition was found to be 9.83%.

Take `CCOC(=O)C1CCN(C(=O)c2ccc3c(c2)sc2nc(-c4ccc(C)cc4)cn23)CC1`: the inhibition was -14.6%.

With `Cc1cccc(OCC(=O)Nc2ccc3oc(-c4ccccc4F)nc3c2)c1`, the inhibition was determined as 14.7%.

Regarding `COC(=O)c1cc2sc(C)cc2n1CC(=O)Nc1cccc(SC)c1`, the inhibition is -25.9%.

For the compound `COc1ccc(-c2nc3cc(C(C)C)ccc3o2)cc1NC(=O)c1ccc(C)c(Cl)c1`, the inhibition was -9.77%.

For the compound `CCc1ccc(NC(=O)C2CCN(S(=O)(=O)c3c(C)noc3/C=C/c3ccco3)CC2)cc1`, the inhibition was -4.86%.

Consider `FC(F)(F)c1ccc(-c2noc(-c3ccccc3Br)n2)cc1`, for which the inhibition came out at 11.1%.

For `Cc1[nH]c2ccccc2c1CN1CCN(c2ccccn2)CC1`, the inhibition was active: 55.8%.

On to `CSc1ccc(CNC(=O)CN2C(=O)C3CCCCN3c3ccc(C(=O)N4CCCC4)cc32)cc1` (centres undefined), for which the inhibition came out at 18%.

As for `CCOC(=O)c1ccc2c(c1)[C@@H]1C=CC[C@@H]1[C@H](c1cccc(OC)c1OC)N2`, the inhibition came to 2.16%.

Turning to `CCCC(=O)C1=C(c2cccc(OC)c2)N(C(=O)CCC)n2c(C)nnc2S1`, the inhibition was -1.25%.

As for `CC(=O)c1ccc(N2CCN(C(=O)c3cc4ccc5cccnc5c4[nH]3)CC2)cc1`, the inhibition worked out at 1.8%.

With `O=C(Nc1ccc(Cl)cc1)c1cc2nc(-c3ccc4c(c3)OCO4)cc(C(F)(F)F)n2n1`, the inhibition worked out at 7.64%.

Regarding `CCn1c(=O)n(-c2cccc(Cl)c2)c(=O)c2sc3ccccc3c21`, the inhibition is 0.984%.

`CCc1nn(CC(=O)N2CCN(c3ccc(Cl)cc3)CC2)c(=O)c2cc3occc3n12`: the inhibition was 4.14%.

`O=C(c1cnc(N2CCCCC2)c2ccccc12)N1CCN(c2ccc(Cl)cc2)CC1`: the inhibition is 18.7%.

For `COc1ccc(C(=O)Nc2ccccc2-c2nc(-c3ccc(OC)cc3)no2)cc1`, the inhibition was 10.6%.

`COc1ccc(OC)c(/C=C(\C#N)c2nc3ccccc3c(=O)[nH]2)c1`: the inhibition is -2.09%.

On to `O=C(CCC(=O)c1ccccc1)Nc1ccc(F)c(Cl)c1`, for which the inhibition came to 0.201%.

On to `Cc1ccc(C)c(S(=O)(=O)NCCc2csc(-c3ccc(Cl)cc3)n2)c1`, for which the inhibition was -26.7%.

As for `Cc1sc2c(c1C)c(=O)n(CCc1ccccc1)c(=O)n2Cc1ccc(F)cc1`, the inhibition came to 17.4%.

As for `O=S(=O)(NCCS(=O)(=O)N1CCN(c2ccccc2)CC1)c1ccc(Cl)cc1`, the inhibition stood at 5.3%.

Take `Cc1cccc(NC(=O)C2CCCN(S(=O)(=O)c3ccc4c(c3)oc(=O)n4C)C2)c1` (centres undefined): the inhibition is -24.9%.

As for `COc1ccccc1N1CCN(CCCNC(=O)c2cnn(-c3ccc(C)c(C)c3)c2C2CCN(C(=O)OC(C)(C)C)CC2)CC1`, the inhibition was determined as 10.8%.

As to `CCCCS(=O)(=O)c1oc(-c2ccc(F)cc2)nc1S(=O)(=O)c1ccccc1`, the inhibition came to 0.279%.

On to `Fc1ccc(-c2cc(C(F)(F)F)nc(NCc3ccccc3)n2)cc1`, for which the inhibition is -0.784%.

Consider `O=C(c1ccc2c(c1)N(Cc1ccc(F)cc1)C(=O)c1ccccc1S2(=O)=O)N1CCN(c2ccccn2)CC1`, for which the inhibition is -9.67%.

Take `COc1ccccc1CNC(=O)c1cnc2c(-c3ccccc3)c(C)nn2c1C`: the inhibition is -8.28%.

For the compound `Cc1ccc(-n2nc3ccc(NC(=O)Cc4ccc(Cl)cc4)cc3n2)cc1`, the inhibition turned out to be 1.43%.

As to `Cc1ccc(CNC(=O)c2ccc(N3CCC4(CC3)CC(c3ccccc3)=NO4)c([N+](=O)[O-])c2)cc1`, the inhibition is active: 45.2%.

Regarding `CCOC(=O)c1c(NC(=O)C(C)Sc2cn(CCNC(=O)c3ccccc3OC)c3ccccc23)sc2c1CCC2` (centres undefined), the inhibition was 4.31%.

Regarding `CCOC(=O)COc1ccc(CC)cc1C(=O)c1ccn2nc(-c3ccc(Cl)cc3)cc2n1`, the inhibition was -12.4%.

Take `COc1cccc(CNC(=O)CSC2=Nc3ccccc3C3=NC(C)C(=O)N23)c1OC` (centres undefined): the inhibition turned out to be 8.28%.

The inhibition is the drop in the measured response relative to a control, in per cent.
